The list shows a part of the results.
B1: chr14:59836542:59836543:+_ENSMUSG00000035469_ENSMUST00000043227|mus_hu|FALSE|FALSE (ssRNA)
RNA: GGGAGUUCUACAGUCCGACGAUCCCAAGCAAACACCUCUCCAUCAGCUGCCAGAGCCAUUGAAUGAUGUGAGCCACAAGCUACUUCCACCACUUGCUUGAUCAAGAGAUUGGUACAGACCUGGACGGGAGCAAUGCCUUGGUUCAACAGAGGAUUGAGCAUCA
B2: chr1:39494447:39494448:+_ENSG00000168653_ENST00000372967|hu_mus|hu_hu_hu_mus_False|78_88 (ssRNA)
RNA: GGGAGUUCUACAGUCCGACGAUCGCACCGAGCGGCGUUCUUAUAGGGCUGUUCACCACUCUGGAUUAUAAAGUGCCGGUCCAGGCUGAUGCCCAGCUUUUUCUGUAUGUCAAGGAAAGGCAUGGCUCUGCAGUGCCCUUGUCACAACAGAGGAUUGAGCAUCA
B3: chr15:74751088:74751089:-_ENSG00000138629_ENST00000361351|perfect_dup|motif|central (ssRNA)
RNA: GGGAGUUCUACAGUCCGACGAUCCGGGUCUGGAACAGAUUCCUGGAGCUUGCCAGCAAUAAGCUGCUUCAGAAAUGAAAUGCGGUAGCCCCCUAGGGAAUAUUCUCCCAGUUCUGUCUCUGGCAACUGAAGAAUAGAUUUUGGCAACAGAGGAUUGAGCAUCA
B4: chr4:99339852:99339853:+_ENSG00000138698_ENST00000453712|hu_mus|motif|central (ssRNA)
RNA: GGGAGUUCUACAGUCCGACGAUCGGCGUGCUGCACCGUCACGUUCCCGUCUUCUACGUGUCUGUCCAGCAAAUCCAUGAGUUUUUCGGCAAUCCCAUUGUCUACCAUAUGAAUACAAUUUCCAUCGUUCCUGGCAAAAUUUGCCAACAGAGGAUUGAGCAUCA
B5: 123086542_123086662_582_3pUTR_ENSMUSG00000031822_ENSMUST00000034279|mouse|control|control (ssRNA)
RNA: GGGAGUUCUACAGUCCGACGAUCGGGAGUGCUGGGGACACUGUGACCCCCGGGGGGGACGAUGAUGGGGCCCAUGGGCACUCGUUUGGGCGUGCUAGCUGGAGAGCUAUGGUUGGUGGCUGGAGAGGACACUGGAGAUGACUCCAACAGAGGAUUGAGCAUCA
B6: chrX:70776531:70776532:+_ENSG00000147162_ENST00000373719|perfect_dup|FALSE|FALSE (ssRNA)
RNA: GGGAGUUCUACAGUCCGACGAUCCUGUUGCAGUACACUUGCUAAAUUGGAAUGUGCAGCAGCAAACUCUGGGAAGACUUCUAAUGCUUUGCGAUACAGGCGAACUGCCUCUUCAAUGUUGCCCUGUUCCCGUUUGAUGUUGGCCAACAGAGGAUUGAGCAUCA
B7: 171560771_171560891_3747_CDS_ENSG00000117523_ENST00000495585|human|control|control (ssRNA)
RNA: GGGAGUUCUACAGUCCGACGAUCCUUCUACUUUUUCCUGACAGACCCCAGGAGGGUCGGUCAGUGUUUCAGGAGGUUUACUUGAAUCACUGUCCACUUUCUGGGCUUUGCCUCCUCCUAUCUGUUUGCUCUGUUGCUGUUCAGCAACAGAGGAUUGAGCAUCA
B8: chr18:58099821:58099822:+_ENSMUSG00000024597_ENSMUST00000115366|mus_hu|motif|central (ssRNA)
RNA: GGGAGUUCUACAGUCCGACGAUCAUUUUCUUUCUUUGGUUUGGUAUUGAUAUCUCCUAGAACCAUGAUAUCAGAAAAGUCGGUCCGGAACUUGCUAAGCAAAGUAGCCAUCGCUCUCCGGUCAUGGUCUAUUCUGUUUAUCUUCAACAGAGGAUUGAGCAUCA
B9: chr18:24791317:24791318:+_ENSMUSG00000024271_ENSMUST00000025120|mus_hu|FALSE|FALSE (ssRNA)
RNA: GGGAGUUCUACAGUCCGACGAUCACUCCCAGUGAAGAAAUACUUGCUGUCAGGACUCCAAUCACAAGACCAAAUAAUUCUACUGUGCACAGAAGUAAUUUUGUUGGUGAAGGCAAAAAGACUAAAAACUGGCUCGAACUCAGGCAACAGAGGAUUGAGCAUCA
B10: chr2:155479361:155479362:-_ENSMUSG00000038324_ENSMUST00000041059|mus_mus|FALSE|FALSE (ssRNA)
RNA: GGGAGUUCUACAGUCCGACGAUCCCACUCCUCCAGUUCUUGAAGGAAGCUGGCUGUGCCCGUUGACUCUGACACUUUCCUAGUUGCCAGUUUGCAAAGCCGUUCCACAAAGCCAGGGAUGCUGAGAAGAGCAGCUUGGUUGAUCAACAGAGGAUUGAGCAUCA
B11: chr7:75932113:75932114:+_ENSG00000106211_ENST00000248553|hu_hu|hu_hu_hu_mus_False|18_78 (ssRNA)
RNA: GGGAGUUCUACAGUCCGACGAUCCUGCGACCACUCAUCGGGCAACCGGGGCACCCCGAAGGCCUGGUCGAAGAGGCGGCUGUGUGCAGGGUACCAGUCCCGGAAUGGUUCCCAGCUGCCCCGCAGGAGCAGCGAGAAGGGCACCAACAGAGGAUUGAGCAUCA
B12: chr16:16313726:16313727:-_ENSMUSG00000022789_ENSMUST00000023477|mus_mus|FALSE|FALSE (ssRNA)
RNA: GGGAGUUCUACAGUCCGACGAUCAUACAUUGAUUAUGUGAGGAACUUGCCAGGCUCCAUCUUUUAAAGCCAGGUCAGUCUAUAUAAAUAGUGCAUGCAUUAUAGUCAUGAAAUGUCCUGGAGCUUCCUUUCUGAGGACUACAGCAACAGAGGAUUGAGCAUCA
B13: chr11:105962086:105962087:+_ENSG00000149313_ENST00000278618|hu_hu|motif|central (ssRNA)
RNA: GGGAGUUCUACAGUCCGACGAUCGCCUAUAUCCAAGUUUAAUGGAGAUAGAUCAAAUUCAAGCCGCUGCAAUUCAAAUCCGGGUCCAACACCAAUGGCUUUUAUGAAGCUUUCCUUAAGUGCCCAAUUCCUAUAAAACAUAUCCAACAGAGGAUUGAGCAUCA
B14: chr9:37780812:37780813:-_ENSG00000107371_ENST00000396521|hu_mus|FALSE|FALSE (ssRNA)
RNA: GGGAGUUCUACAGUCCGACGAUCUAACGUCUGCUGAAUGGUCUUAGCUUUGACCCAUAUUCUUCCAUUCAUUCCAAACACAAUCUCCAAUGGAUAGAGUUUUCCCAGCUCUUGCACAAUUUCACAAUCUGGAGCUAAUAGCUUCAACAGAGGAUUGAGCAUCA

Molecular target: T1, UNK ZnF1-3 (human, UniProt Q9C0B0 31-174)
T1 sequence: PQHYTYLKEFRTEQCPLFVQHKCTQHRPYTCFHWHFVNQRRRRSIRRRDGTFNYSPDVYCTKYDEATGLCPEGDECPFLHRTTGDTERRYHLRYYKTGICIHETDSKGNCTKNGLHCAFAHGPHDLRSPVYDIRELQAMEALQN
Test: nsRBNS (natural sequence RNA bind-n-seq); RBNS binding buffer (assumed for nsRBNS): 25 mM Tris pH 7.5, 150 mM KCl, 3 mM MgCl2, 0.01% Triton X-100, 500 ug/ml BSA, 20 U/ml SUPERase-In, 4 C; UNK is unkempt and MSI1 is Musashi-1; names of the RNAs are library labels; protein concentration not given here; high values mean tight binding

| Binder | binding signal [enrichment R] |
| --- | --- |
| B1 | 1.44 |
| B2 | 0.958 |
| B3 | 1.16 |
| B4 | 0.6 |
| B5 | 1.29 |
| B6 | 1.06 |
| B7 | 0.41 |
| B8 | 0.262 |
| B9 | 2.14 |
| B10 | 0.777 |
| B11 | 0.724 |
| B12 | 0.796 |
| B13 | 1.44 |
| B14 | 0.651 |

From PMC12136788
